# This is one part of the list.
# Test system: T1, C. trachomatis L2/434/Bu expressing GFP (CTL2-GFP)
# T1 construct: L2/434/Bu GFP intracellular growth in HeLa cells
# Set-up: species or system HeLa; C. trachomatis total inclusion area by high-content imaging, normalised to DMSO
# Settings: total inclusion area; 28.5 h, 10 µM; inhibitor
# Summary of the method: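 High-content images of fixed, Hoechst-stained infected cultures supply inclusion area and count (growth) plus nuclei number (viability), complementing bulk GFP/resorufin fluorescence. MIC determination is unchanged from the primary assay.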
row,Compound,% of control remaining
1,O=C1c2cc(-c3nc(-c4ccccc4)[nH]c3-c3ccccc3)ccc2-c2ccc([N+](=O)[O-])cc21 [CBK262613],111.105
2,CCc1ccc(CC)c(S(=O)(=O)NC(CC(=O)O)c2ccccc2)c1 (stereo not drawn) [CBK266208],122.002
3,O=C(CSc1nc(=O)cc(O)[nH]1)c1ccccc1 [CBK026570],108.121
4,NC(=O)c1ccc(-c2cncc(NCc3ccco3)n2)cc1 [CBK065383],91.6505
5,CCOc1ccc2c(c1)CN(CCCc1nc(C)no1)CC2 [CBK305076],90.0521
6,O=C(Nc1ccccc1C(=O)O)c1cc(S(=O)(=O)Nc2ccc(F)cc2)ccc1Cl [CBK263248],108.22
7,O=C(NCc1ccccc1)C1CCCN(c2ncnc3[nH]cnc23)C1 (stereo not drawn) [CBK287916],28.701
8,Cc1ccc2c(c1)C(=O)CC1(CCN(C(=O)Cc3c(C)[nH]c(=O)[nH]c3=O)CC1)O2 [CBK285688],103.068
9,Cn1cc(CNS(=O)(=O)c2ccc(F)c(Br)c2)cn1 [CBK305174],22.0103
10,CCc1nccn1CCC(=O)NC1CCN(c2ccc(F)cc2)CC1 [CBK306760],102.124
11,O=C(c1ccc2[nH]c(=O)[nH]c2c1)N1CCCC2(CCN(C(=O)c3cc(F)c(F)cc3F)C2)C1 (stereo not drawn) [CBK131566],81.727
12,CC(C)C(=O)Nc1nnc(-c2ccc(Cl)cc2)o1 [CBK287593],91.7362
13,Cn1cc(NC(=O)C2CCCN(c3ncccn3)C2)cn1 (stereo not drawn) [CBK304394],33.6596
14,Nc1nc(SCCCC(=O)NC2CCCCC2)nc2sc3c(c12)CCCC3 [CBK266176],126.203
15,CCCCc1cc(C[C@@H]2C[C@H](NS(C)(=O)=O)C2(C)C)no1 [CBK289702],113.535
16,O=C(NCCc1cccs1)NCc1cc(F)ccc1F [CBK045363],100.538
17,CN(C)C(=O)CSc1nc2cc(Cl)ccc2c(=O)n1CC1CCCO1 (stereo not drawn) [CBK305932],39.1341
18,Cc1cc(CC(=O)N2CCC(Cn3cncn3)(C3CCCCC3)CC2)on1 [CBK136795],98.5086
19,Clc1cc(Cl)cc(-c2cn3ccnc3c(NCc3ccncc3)n2)c1 [CBK066664],142.495
20,COc1ccc(C2=NN(C(=O)CCC(=O)O)C(c3cccs3)C2)cc1OC (stereo not drawn) [CBK266656],99.4014
21,CCc1ccc(-n2nc3ccc(NC(=S)NC(=O)c4cc5ccccc5o4)cc3n2)cc1 [CBK264258],117.731
22,O=[N+]([O-])c1cc2c(cc1C1NN=C(c3ccccc3)S1)OCO2 (stereo not drawn) [CBK262540],94.9781
23,O=C(c1ccncc1)N1C[C@H]2CCc3c(n[nH]c3C(F)(F)F)[C@H]2C1 [CBK282110],98.5012
24,COC(=O)[C@@H](C)NC(=O)[C@@H]1CN(S(C)(=O)=O)CCN1C(=O)c1cccs1 [CBK289623],94.8651
25,O=C(CNS(=O)(=O)c1ccc(F)cc1)N1CCOCC1 [CBK042214],98.0315
26,CC(C)C(=O)N1CCCC(n2nc(-c3cccs3)ccc2=O)C1 (stereo not drawn) [CBK284038],38.7744

row,Compound,% of control remaining
1,COc1ccc(CN2CCC(N3CCCCC3)CC2)c(OC)c1 [CBK261848],84.7128
2,O=C(Nc1cncc(OC2CCNCC2)n1)c1ccoc1 [CBK036366T],88.8834
3,COc1ccc(CN2CCC(N3CCCCCC3)CC2)cc1OC [CBK264721G],105.875
4,Cc1cnc(NC(=O)c2ncoc2-c2cccs2)s1 [CBK283977],90.6762
5,Fc1ccc(OCCNCC2NCCc3c2[nH]c2ccccc32)cc1 (stereo not drawn) [CBK066972],84.3692
6,COc1ccc(/N=C2\S[C@H]3[C@H]([C@@H](O)[C@H](O)C[C@@H]3C(N)=O)N2Cc2ccc(F)cc2)cc1 [CBK288942],108.822
7,O=C(N1CCOCC1)N1CCN(c2cncc(-c3ccc(O)cc3)n2)CC1 [CBK126946T],99.4989
8,CCC(CN1CCCC1)NC(=O)C1(c2ccccc2)CCOCC1 (stereo not drawn) [CBK282758],121.543
9,CC(C)(C)CC(C)(C)Nc1nc(N)nc(N)n1 [CBK022832],96.6101
10,CCN(CC(=O)NCc1ccncc1)S(=O)(=O)c1ccccc1 [CBK269537],127.206
11,CC1COCC(C)N1c1ccc2nnc(-c3ccc(C(F)(F)F)cc3)n2n1 (stereo not drawn) [CBK009548],75.5522
12,O=C(CSc1nnc(CN2CCOCC2)n1-c1ccc(Cl)cc1)N1c2ccccc2SC2C=CC=CC21 (stereo not drawn) [CBK268820],90.6354
13,Cn1ncc2c(=O)n(Cc3nnsc3Cl)cnc21 [CBK237374],86.4173
14,Cc1ccc(-n2c(SCC(=O)Nc3ccccc3F)nnc2-c2ccccc2O)c(C)c1 [CBK268905],60.0092
15,O=C(CN1CCCC[C@H]2CN(C(=O)c3cccs3)C[C@H]21)NC1CC1 [CBK285504],82.2529
16,CN(C)CCCC(=O)Nc1ccc2[nH]ccc2c1 [CBK159698],107.105
17,CC(C)(C)c1cc(NC(=O)Cn2nc(C(=O)O)c3ccccc3c2=O)n(-c2ccccc2)n1 [CBK297557],94.2088
18,CCOc1ccsc1C(=O)N1CCC(Cc2ccccc2)CC1 [CBK200186],99.9504
19,O=C(O)c1ccc(S(=O)(=O)c2ccc3c(c2)C(=O)N(c2ccccc2-c2ccccc2)C3=O)cc1 [CBK262760],86.6747
20,O=C(Cn1cc(C(=O)NCC2(c3ccccc3)CCCC2)ccc1=O)NC1CCCC1 [CBK286040],119.064
21,COc1ccc(-c2cnc(N)c(-c3ccc(F)c(Cl)c3)n2)cn1 [CBK063966],95.3716
22,CCOc1ccc(-c2cc(C(=O)NCc3cc(OC)ccc3OC)n[nH]2)cc1 [CBK288116],86.7632
23,CCC(CO)NC(=O)C1(Cc2ccc(-c3cc(C)cc(C)c3)cc2)CCOCC1 (stereo not drawn) [CBK286522],117.199
24,O=C(Cc1ccc(F)cc1)N1CC[C@@H](c2ccccc2)[C@H](O)C1 [CBK283714],95.7596
25,Cc1cc(NC(=O)C(C)SCc2cccc(C(F)(F)F)c2)no1 (stereo not drawn) [CBK306233],33.9901
26,c1ccc2c(c1)OCC(COc1nccnc1OC1CCN(CC3CC3)CC1)O2 (stereo not drawn) [CBK083001T],83.582

row,Compound,% of control remaining
1,O=C(CC1CCN(Cc2cccc(C(F)(F)F)c2)CC1)N(Cc1ccccn1)C1CC1 [CBK286494],69.9637
2,Cn1ccnc1C1(O)CCN(C(=O)Nc2cccc(F)c2)CC1 [CBK282279],92.4301
3,CN(C)CCCN(C(=O)c1ccccc1)c1nc2ccc(F)cc2s1 [CBK287640],79.6259
4,O=C(CSc1nnc(CN2CCOCC2)n1-c1ccccc1)N1CCN(c2ccccc2)CC1 [CBK266660],115.809
5,COc1ncc(-c2nccnc2OC2CCCCC2)c(OC)n1 [CBK106745],94.4187
6,CCC(C)c1ccc(NC(=O)CSc2nc3cccnc3[nH]2)cc1 (stereo not drawn) [CBK264349],120.159
7,O=C(Cn1cncn1)c1ccc2c(c1)CCO2 [CBK020087],46.2841
8,COc1cc(Nc2cc(-c3ccccc3N(C)C)ncn2)cc(OC)c1OC [CBK090702],49.0567
9,COC(=O)[C@H]1Cc2cc3c(cc2[C@H]1c1cc(OC)c(OC)c(OC)c1)OCO3 [CBK200105],10.8411
10,O=C1NCC2(C/C=C/CCOc3ccccc31)CCN(C(=O)CCc1ccccc1)CC2 [CBK292017],106.506
11,Cc1ccc(OCC(=O)O/N=C(\N)Cc2ccc([N+](=O)[O-])cc2)c(C)c1 [CBK263102],98.6365
12,CC1CCc2c(sc3ncnc(NCC(=O)N4CCCC4)c23)C1 (stereo not drawn) [CBK306079],105.776
13,CN(C)S(=O)(=O)CCNC(=O)c1ccc(-c2ccccc2CO)cc1 [CBK306773],75.7001
14,Cn1ccnc1C1(O)C2CCCC1CN(CC1CCCCC1)C2 (stereo not drawn) [CBK285220],119.182
15,O=C1NC2(CCN(C(=O)Cc3c(F)ccc(F)c3F)CC2)Oc2ccc(-c3ccoc3)cc21 [CBK115848],91.4049
16,CCn1c(C(O)c2ccc(OC)c(OC)c2)nc2ccccc21 (stereo not drawn) [CBK262974],80.1197
17,COc1ccnc(N2CCCN(CCc3ccc(OC)c(OC)c3)CC2)n1 [CBK084002],85.3637
18,COc1ccc2cc(OCCO)ccc2c1 [CBK176054],54.7316
19,O=C(CC1CCN(Cc2ccccn2)CC1)NCC1(c2ccccc2)CCCC1 [CBK285959],115.015
20,CC1=C[C@@H](CNC(=O)c2ccccn2)[C@H](C(C)C)C[C@H]1CC(=O)O [CBK289212],107.074
21,COc1ccc(-c2ccc3n(c2=O)C[C@H]2C[C@@H]3CN(C(=O)c3ccncc3)C2)cc1 [CBK289178],98.5508
22,FC(F)(F)c1ccc(CN2CCN(c3nccnc3OCc3cccnc3)CC2)cc1 [CBK083133T],69.0273
23,CC(NC(=O)Cc1cccs1)c1nc2cccnc2n1C(C)C (stereo not drawn) [CBK283828],111.197
24,CCN(CC(=O)N1CCN(C)CC1)S(=O)(=O)c1ccc(OC)cc1 [CBK269374],83.7652
25,CCOC(=O)c1cn(CC)c2cc(F)c(OCC)cc2c1=O [CBK307139],52.97
26,CN(C)CC(=O)NC(Cc1cccs1)c1nccs1 (stereo not drawn) [CBK285061],101.316
